± gives the standard deviation of the averaged measurements. The list shows a part of the results.

Data on 44 sequences can be found in the supplement of paper PMC11417369.

The test concerns PfAP2-I AP2 domain 3 (GST-tagged). Briefly: gcPBM binding intensity (ln(normalized median fluorescence intensity)); higher = stronger DNA binding. In short, it runs like this:
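For binding intensity, the highest Masliner-normalised natural-log median intensity across replicate spots of either probe orientation was taken. Protein bound to the array was stained with Alexa488 anti-GST antibody and scanned at 488 nm. The protein, GST-tagged P. falciparum DNA-binding domains from E. coli at about 25 μg on average, had been applied for 1 h to an Agilent 4 × 180k array of primer-extended double-stranded 36-bp intergenic genomic probes and negative controls.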
Consider “ATTAAATACTTCGATTGTACAATTTTTTTTTTTTTT [XGTACX_site832]”, for which the “gcPBM binding intensity (ln)” value amounted to 7.79 ± 0.4.

As to “ATATATATATATCACCGTACTTATATAATAACATGA [XGTACX_site4398]”, the “gcPBM binding intensity (ln)” value amounted to 9.29 ± 0.3. For “ATAATATTCGAGTGTGCACACAAACATACATATATA [CACACA_site3396]”, the “gcPBM binding intensity (ln)” value is 9.54 ± 0.24. For “ATTTTTATTAAAATATGTACGTATTTTACTCATACA [XGTACX_site5330]”, the “gcPBM binding intensity (ln)” value turned out to be 7.83 ± 0.59. On to “ATACAGAAAAAAAACACACACACATAATATACATAC [CACACA_site1933]”, for which the “gcPBM binding intensity (ln)” value amounted to 8.03 ± 0.57. Turning to “ACAGATATATTTATTTGTACATATCACCAAAATGGA [XGTACX_site5644]”, the “gcPBM binding intensity (ln)” value is 7.54 ± 0.59. Under “TTTTTTTTTTATTTTTGTACATATATTTCAGTATTA [XGTACX_site8396]” stands 8.06 ± 0.75. Under TAATTATTCTATTAAGTGCATATATTTTTAAAAAGA stands 9.89 ± 0.3; under “TTAATATAATAAAATCGTACAAATAAAATATAAAAT [XGTACX_site8730]”, 8.06 ± 0.52. Turning to “AACCAATATGAGTATACACACATAAATATAAATATA [CACACA_site5968]”, the “gcPBM binding intensity (ln)” value was 7.55 ± 0.4. In the case of “AAAAAAAAAAAAGATACACACAAAAATGGATATATA [CACACA_site7069]”, the “gcPBM binding intensity (ln)” value is 7.39 ± 0.63.

In the case of “AAAAATGAGAAACACACACACATATATATATATATA [CACACA_site2228]”, the “gcPBM binding intensity (ln)” value is 9.29 ± 0.47. Regarding “TCTTTAAATCGAGTGTTAAATAATATAATATAAAAA [CACACA_negctrl_site1507]”, the “gcPBM binding intensity (ln)” value turned out to be 7.7 ± 0.53. Under “ATAATATATATTAAACGTACATAAAATAATTATGGA [XGTACX_site1670]” stands 7.65 ± 0.41; under “TAATATTTATGTTAATGTACAAAAAAACAAAACAAA [XGTACX_site301]”, 7.85 ± 0.4. Take “GTATGTATATATGTATGTACTTATGTATCATTATTA [XGTACX_site2438]”: the “gcPBM binding intensity (ln)” value came to 7.79 ± 0.028.

Turning to “TATTTTGTTTTAAAAGTACACACTTTTAATTAGATT [CACACA_site1180]”, the “gcPBM binding intensity (ln)” value turned out to be 7.83 ± 0.22. For “ATAACAAAATGAAGAGTGCATTACCAAGTGGGTAAA [GTGCAC_site9450]” the value was 10.93 ± 0.014; for “TTAATTTGTTCTTACACACACATATAAATATATTTA [CACACA_site6676]”, 8.02 ± 0.54; for “ATATTTAAGGCGTGTATGCACACGACTATTCCGTAT [CACACA_site1080]”, 8.54 ± 0.49. On to “ATGATACTAAAAAATTGTACATATAACAAAAGGTAT [XGTACX_site2527]”, for which the “gcPBM binding intensity (ln)” value was found to be 8.08 ± 0.41. In the case of “CATATATTTTGAAACACACACATATATAATATACAT [CACACA_site1158]”, the “gcPBM binding intensity (ln)” value was determined as 7.68 ± 0.45. Under “TTATCATTATATAGTTGTACATATTTATTTATAAAA [XGTACX_site2310]” stands 7.95 ± 0.2; under “TTTGTATAATACATGTGTACGTATTTTTATATAAAT [XGTACX_site8656]”, 8.09 ± 0.29; under “AGAACTAAAAGAACATGTACATAAATTCTAAATAAT [XGTACX_site4084]”, 7.67 ± 0.57. In the case of “ATATGATCATACTGTGCATGTTAATGCAAATTTTAT [TGCATGCA_site984]”, the “gcPBM binding intensity (ln)” value worked out at 8.56 ± 0.48. With “TACATATATTATACATGTACACATTTATACATATCG [XGTACX_site2866]”, the “gcPBM binding intensity (ln)” value was found to be 7.78 ± 0.35. Regarding “ATAATTGTCCATTTTTTCTTTTTTTTTTTCTTTTTA [CACACA_negctrl_site928]”, the “gcPBM binding intensity (ln)” value amounted to 7.55 ± 0.69. For the sequence “TTTTTTTTTATATAAAAAAAAATTTTTATTATTTTA [GTGCAC_negctrl_site347]”, the “gcPBM binding intensity (ln)” value is 7.46 ± 0.77.

Consider “CGCACAGACGGACACACACACACATATATATATATA [CACACA_site5249]”, for which the “gcPBM binding intensity (ln)” value came out at 9.4 ± 0.3. Take “AAAAAAAAAAAAAAAACACACATTTAGCAATCTACA [CACACA_site3706]”: the “gcPBM binding intensity (ln)” value was determined as 8.85 ± 0.41. Regarding “TTAACAAAACATAAGGTGCTTAAAATTTTATATCAC [GTGCAC_site9839]”, the “gcPBM binding intensity (ln)” value was 9.81 ± 0.17. With “TCTGTTAAACAAAAAAGTACTAAAATAATGTAAAAT [XGTACX_site6826]”, the “gcPBM binding intensity (ln)” value stood at 8 ± 0.62. Under “ATTATTATATATGTATGTACTTATATAATATATATA [XGTACX_site5198]” stands 8.04 ± 0.36; under “TATATATTGTTATATACACACATGTATTTAAAAAAT [CACACA_site5737]”, 7.69 ± 0.33; under “ATATGTACAAGTGTTTATGCTGAACGGAAATCCTGT [CACACA_negctrl_site1372]”, 7.71 ± 0.67. Regarding “TACCTATATAGACACACACACATATATTTATTTATA [CACACA_site6728]”, the “gcPBM binding intensity (ln)” value was found to be 7.89 ± 0.54. For “TATATGTATTTGTATACACACAAATGTATATATTTA [CACACA_site1265]”, the “gcPBM binding intensity (ln)” value amounted to 7.38 ± 0.35. “ATGTATTAAAATTTATGTACTTATATATAAATATAT [XGTACX_site1025]”: the “gcPBM binding intensity (ln)” value worked out at 7.76 ± 0.48.

For the sequence “AATATATATACTATAACACACATACACCCAAAAAAA [CACACA_site4453]”, the “gcPBM binding intensity (ln)” value was 8.28 ± 0.3. TTATATGGATATACAGTGCATATATACATATAAGTG: the “gcPBM binding intensity (ln)” value was found to be 9.4 ± 0.042. Consider “AAAAAAAAAAGAAACACACACATATATATATAGAAT [CACACA_site1777]”, for which the “gcPBM binding intensity (ln)” value was 7.74 ± 0.75. As to “CATACCTTTTAATGTACACACATTTCTTTTTTGTTA [CACACA_site892]”, the “gcPBM binding intensity (ln)” value is 8.04 ± 0.54. “TATAAACATAATATTTAACACACATGAAGATGTATA [CACACA_site8252]”: the “gcPBM binding intensity (ln)” value is 7.59 ± 0.24.
